Test results from PubChem BioAssay AID651820 (National Center for Advancing Translational Sciences (NCATS), 2012).
Screen size: about 340,000 compounds; about 12,000 (3.5%) were called active. Inconclusive results, whose numbers are uncertain, are shown with a selection of clear calls. Calls follow the shape of the dose curve; as a rule, active = well fitted inhibition curve with a large enough effect; inconclusive = small, poorly fitted or top-dose-only effect, or another doubt; inactive = no such curve, though single readings can be large or run the other way. No potency is given beside an inconclusive call; the fits are too rough.

Assay: qHTS Assay for Inhibitors of Hepatitis C Virus (HCV)
Settings: Huh7.5.1 HCVcc-Cre (HCVcc is cell-culture hepatitis C virus) infection, luciferase reporter, 44 h; activity change, negative = inhibition: at 41.8 µM (top of the series)
How it was run: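 Seed cells (1,000/well) for 4 h; treat with compound and infect with HCVcc-Cre, moi about 0.5. Incubate 44 h, then detect luciferase activity.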
% is scaled to controls: 0 for no effect and ±100 for the full control effect; potency is read from the fitted curve at half-maximal effect; tags tell the direction and shape of the fitted curve.

| Structure (SMILES) | Potency | activity change, negative = inhibition |
| --- | --- | --- |
| COc1ccc(S(=O)(=O)N2CCCCCC2)cc1C(=O)N(C)Cc1ccc(Cl)cc1Cl | active: 11.2 µM | – |
| CCOc1ccccc1CNC(=O)C1CCN(C(=O)N2CC(C)Oc3ccc(C)cc32)CC1 (stereo unspecified) | inconclusive [inhibitor, partial curve] | – |
| CCCOc1ccc(C(=O)NNC(=S)NC(=O)CC)cc1 | inconclusive [inhibitor, partial curve] | – |
| Cc1cc(OCC(=O)NCCCN2CCOCC2)c2c(C)c(C)c(=O)oc2c1 | – | inactive: -12.1% |
| O=C1c2cccc3cc(Br)cc(c23)C(=O)N1Nc1ccccc1 | inconclusive [inhibitor, single point] | – |
| CC(=O)c1ccc(Nc2ccc(-c3ccccc3C)nn2)cc1 | – | inactive: -8.66% |
| CN(Cc1ccccc1F)C(=O)COc1ccc(C(=O)c2ccccc2)cc1 | inconclusive [inhibitor, single point] | – |
| CC(=O)c1cccc(NC(=O)/C(=C\c2cccnc2)NC(=O)c2ccco2)c1 | – | inactive: -1.44% |
| CCCc1nc(SCC(=O)Nc2nnc(CC)s2)c2c(C)c(C)sc2n1 | inconclusive [inhibitor, single point] | – |
| NNc1nc2c(-c3ccc(F)cc3)nnn2c2ccccc12 | inconclusive [inhibitor, partial curve, poor fit] | – |
| COc1ccc2oc(C(=O)OCC(=O)Nc3cc(S(=O)(=O)N4CCOCC4)ccc3C)c(C)c2c1 | inconclusive [inhibitor, single point] | – |
| Cc1cc(CSc2ccccc2)ccc1NC(=O)c1ccc(Cl)c([N+](=O)[O-])c1 | active: 7.94 µM | – |
| COc1cc(/C=C2\C(=N)N3N=C(C)SC3=NC2=O)cc(Cl)c1OCCOc1ccc(NC(C)=O)cc1 | – | inactive: -20.1% |
| O=C(CCNS(=O)(=O)c1ccc(Br)cc1)NC1CCN(Cc2ccccc2)CC1 | inconclusive [inhibitor, partial curve] | – |
| COc1ccc(Nc2ncnc3ccc([N+](=O)[O-])cc23)c(OC)c1 | inconclusive [inhibitor, full curve, poor fit] | – |
| Cc1cc(S(=O)(=O)NCc2ccccc2)ccc1OCC(=O)Nc1cccc([N+](=O)[O-])c1 | inconclusive [inhibitor, partial curve] | – |
| O=C(O)Cn1nc(-c2ccc(Cl)cc2)ccc1=O | – | inactive: 11.3% |
| O=C(CCC1CCCCC1)Nc1cc(Cl)ccc1N1CCOCC1 | inconclusive [inhibitor, single point] | – |
| Cc1ccc(N/N=C/c2c(O)n(-c3ccccc3)c(=O)[nH]c2=O)cc1 | – | inactive: -2.23% |
| Cc1cc(C(C)(C)C)cc(C)c1CCNC(=O)c1ccc[n+]([O-])c1 | inconclusive [inhibitor, full curve] | – |
| CCC(C)NC(=S)N(CCc1ccccc1)Cc1cc2cc(OC)c(OC)cc2[nH]c1=O (stereo unspecified) | – | inactive: 5.01% |
| COc1ccccc1-c1c(NC(=O)c2ccco2)n(C)c2ccccc2c1=O | – | inactive: 9.82% |
| COc1ccc(S(=O)(=O)N2CCOCC2)cc1NC(=O)/C=C/c1ccc(F)cc1 | inconclusive [inhibitor, full curve] | – |

| Structure (SMILES) | Potency | activity change, negative = inhibition |
| --- | --- | --- |
| C1=CCC(CN2CCN(C3CCCCCC3)CC2)CC1 (stereo unspecified) | inconclusive [inhibitor, single point] | – |
| CN(C)CCNC=C(C(=O)Nc1ccc(Cl)cc1Cl)C(=O)Nc1ccc(Cl)cc1Cl | inconclusive [inhibitor, partial curve] | – |
| CN(C)c1ccc(C=C(c2nnnn2-c2ccccc2)c2nnnn2-c2ccccc2)cc1 | – | inactive: -8.68% |
| COc1cc(NC(=O)CCN2CC(C)OC(C)C2)cc(OC)c1 (stereo unspecified) | – | inactive: -7.43% |
| CCOC(=O)c1cc2c(ccn2C)n1Cc1cc(C)ccc1C | inconclusive [inhibitor, single point] | – |
| COc1ccc(S(=O)(=O)N2CCC(C(=O)NCc3ccncc3)CC2)cc1 | – | inactive: -2.86% |
| CCOc1ccc(Nc2nc(Nc3ccc(O)cc3)nc(C)c2[N+](=O)[O-])cc1 | inconclusive [inhibitor, full curve] | – |
| Cc1cc(N2CCN(c3ccccc3)CC2)nc(-c2ccccc2)n1 | inconclusive [inhibitor, partial curve] | – |
| CCN(CC)C(=O)CN1CCN(Cc2ccc3c(c2)OCO3)CC1 | – | inactive: 1.11% |
| CCOc1ccc(Br)cc1CNCCN1CCOCC1 | – | inactive: 21.3% |
| O=C1N=C2SCCN2/C1=C\c1c(Cl)cccc1Cl | inconclusive [inhibitor, single point] | – |
| CCC(=O)Nc1nc2c(OC)ccc(C)c2s1 | inconclusive [inhibitor, partial curve, poor fit] | – |
| CCOC(=O)N1CCN(C2=C(NS(=O)(=O)c3ccccc3)C(=O)c3ccccc3C2=O)CC1 | inconclusive [inhibitor, single point] | – |
| COc1ccc2c(C)c(C(=O)N3CCN(Cc4ccccc4)CC3)oc2c1 | inconclusive [inhibitor, single point] | – |
| CCn1c(COc2ccccc2C)nnc1SCC(=O)N1CCN(c2ccccc2)CC1 | inconclusive [inhibitor, partial curve] | – |
| COc1ccc(CC(=S)NCCc2ccccc2)cc1 | – | inactive: 8.4% |
| O=C(N/C(=C/C=C/c1ccccc1)C(=O)N1CCOCC1)c1ccccc1Cl | – | inactive: -1.54% |
| COCCn1c(SCCCC(=O)c2ccc(Br)cc2)nnc1-c1ccncc1 | active: 7.94 µM | – |
| O=C(NC(=S)NCc1cccnc1)c1cc(Br)ccc1Cl | inconclusive [inhibitor, single point] | – |
| CN(CC(=O)Nc1ccc(S(=O)(=O)N2CCCC2)cc1)CC(=O)Nc1ccc(F)c(F)c1F | inconclusive [inhibitor, single point] | – |
| COc1ccc2cc(C(=O)NCc3ccccc3)c(=Nc3ccc(C(=O)O)cc3)oc2c1 | inconclusive [inhibitor, partial curve] | – |
| O=[N+]([O-])c1cccc(S(=O)(=O)NCCCn2ccnc2)c1 | – | inactive: 0.327% |
| CC(CNc1nc2ccccc2n2cnnc12)c1ccccc1 (stereo unspecified) | inconclusive [inhibitor, single point] | – |
